{"source": "patent US20220403048A1", "about": "“BINDING MOLECULES TO ARGINASE II [ARG2]” (Cancer Research Technology Limited, priority 2019, published 2022)", "molecules": {"B1": {"name": "C0020187: anti-ARG2 antibody, parent lead isolation clone, VH SEQ ID NO: 12, VL SEQ ID NO: 17 (antibody, listed as Homo sapiens, V domains shown)", "VH": "[about 100 residues not given here]LRADLGLYMDLWGRGTLVTVSS", "VL": "QSVLTQPPSVSAAPGQKVTISCSGSSSNIGNHYVSWYQQLPGTAPKLLIYDNSERPSGIPDRFSGSKSGTSATLGITGLQTGDEADYYCGTWDSSLSALVFGGGTKLTVL", "modifications": "C0020187"}}, "key": {"[1]": {"system": "recombinant cynomolgus monkey trimeric ARG2 enzyme", "assay": "Direct binding HTRF assay, cynomolgus trimeric ARG2", "conditions": "purified scFv, FIG. 1C"}, "ARG2": {"biological_target": "T1, ARG2 (Homo sapiens, UniProt P78540)", "T1 sequence (P78540 23-354)": "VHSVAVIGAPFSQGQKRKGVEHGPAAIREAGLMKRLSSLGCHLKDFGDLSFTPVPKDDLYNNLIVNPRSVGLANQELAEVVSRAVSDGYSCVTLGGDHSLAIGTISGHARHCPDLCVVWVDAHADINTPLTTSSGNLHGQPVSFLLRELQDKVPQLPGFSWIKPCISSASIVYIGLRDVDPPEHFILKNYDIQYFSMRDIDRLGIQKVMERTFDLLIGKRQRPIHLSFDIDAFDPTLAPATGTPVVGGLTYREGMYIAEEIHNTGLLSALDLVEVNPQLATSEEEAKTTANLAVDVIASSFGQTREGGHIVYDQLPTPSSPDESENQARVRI", "assay": "T cell proliferation assay (BrdU, 96 hours) with exogenous ARG2, improved variant IgGs", "type": "cell-based", "parameters": "human ARG2 (aa23-354); His10 (C); made in house; host or cells: E. coli BL21 (DE3)", "conditions": "In Presence of rhARG2, hIgG1", "experimental": "This assay served to provide evidence of improved functional efficacy for each affinity-matured antibody in comparison to the parent IgG, C0020187 (FIG. 12).\nLead optimisation clones were tested to an endpoint treatment time of 96 hours and the BrdU Cell Proliferation Kit (Roche, France; Cat: 11647229001) was used according to the manufacturer's instructions. R347 was used as the irrelevant control. All clones tested n=2.\nLeukocyte cones underwent Ficoll Plaque (GE, Sweden; Cat: 17-1440-02) gradient separation, PBMC's were extracted and pan T cell population isolated by negative selection using the Human T Cell Enrichment Kit (Stemcell Technologies, France; Cat: 19051) according to the manufacturer's instructions.\n40000 cells/well were seeded in complete growth media (RMPI 1640, 5% Human Serum Albumin) into a 96 well clear TC treated microplate (Greiner-Bio One, Germany; Cat: 655180). T cells were activated by the addition of ImmunoCult CD3/CD28 (Stemcell Technologies, France; Cat: 10971) at a dilution of 1:40 directly into wells and the plate incubated 37° C., 5% CO2 for 45 minutes.\nTo determine EC50's of test antibodies, a dilution series was created in sterile TBS/NaCl Buffer at 10× the final assay concentration added to the assay plate containing cells. Plate was incubated for 30 minutes at 37° C., 5% CO2.\nARG2 was added to relevant wells of the plate at a final concentration of 15 μg/ml. The equivalent volume of ARG2 vehicle and test antibody vehicle was added to relevant control wells. The total volume in each well was 200 μl. Cells were treated with test antibodies for a total of 96 hours at 37° C., 5% CO2. Antibodies were tested alongside C0020187 (parent IgG) as a positive control and R347 (irrelevant isotype control antibody) as a negative control.\nAssessment of T cell proliferation was performed using the BrdU Cell Proliferation ELISA Kit (Roche, Germany; Cat: 000000011647229001). BrdU labelling reagent was added after 78 hours of antibody treatment and the plate further incubated for 18 hours at 37° C., 5% CO2. The remainder of the assay was performed according to the manufacturer's instructions.\nCalculated data was expressed as % of control (Equation 3) and graphical plots were constructed using a four parameter fit and EC50's determined using model 205 in XLFit (IDBS, UK).\nAll test sample data was corrected for background (mean of no cell control)\n% Control=100*((Test Sample−Mean Positive Control)/(Mean Negative Control−Mean Positive Control)) Equation 3:\nMean Positive Control=T Cells in absence of ARG2\nMean Negative Control=T Cells in presence of ARG2\nThis assay served to provide evidence of improved functional efficacy for each affinity-matured antibody in comparison to the parent IgG, C0020187 (FIG. 14, Table 19). R347 was used as the irrelevant control. […]"}}}
{"molecule": "B1", "values": [{"measurement": "binding to biotinylated recombinant cynomolgus trimeric ARG2 enzyme", "setting": "[1]", "value": "bound"}, {"measurement": "EC50", "setting": "ARG2; 96 hours", "value": 1070, "unit": "nM"}, {"measurement": "Maximum % Proliferation", "setting": "ARG2; 96 hours", "value": 68, "unit": "%"}, {"measurement": "EC50", "setting": "ARG2; top conc 2 μM, n=2", "value": "> 2000", "unit": "nM"}, {"measurement": "Maximum % Proliferation", "setting": "ARG2; top conc 2 μM, n=2", "value": 61, "unit": "%"}]}
